The whole screen tested about 46,000 compounds, of which about 60 (0.1%) were called active. Inconclusive results (about 3%) are left out. The call rests on the fitted dose curve; in most records, active means well fitted inhibition curve with a large enough effect; inconclusive means small, poorly fitted or top-dose-only effect; inactive means no such curve, though single readings can be large or run the other way. This is one part of the list.
Assay: Primary qHTS assay for Inhibitors of ovarian cancer metastasis using an organotypic tumor microenvironment (TME) model. Further: nearly all actives have a fitted effect of over 65% in size.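 On activity change, negative = inhibition: plate controls were DMSO wells for no effect and tomatine positive control wells for full effect.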
Details: SKOV3ip1-GFP adhesion/invasion on 3D omental model, fluorescence; series mostly up to 45.8 µM; activity change, negative = inhibition: at the top concentration
Procedure, shortened: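 A 3D layer of primary human omental fibroblasts, mesothelial cells, fibronectin and collagen I, grown 48 hr, received SKOV3ip1-GFP cells in serum-free medium plus compounds at 0.36-46 umol/L. After 2 hr RT and 16 hr 37 C, fixed adherent GFP cells were counted; normalized to DMSO and tomatine.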

Structure (SMILES) | outcome | activity change, negative = inhibition
CCOC(=O)C1CCCN(C(=O)C2CCN(S(=O)(=O)c3c(C)noc3/C=C/c3ccccc3F)CC2)C1 (stereo not given) | inactive | 
O=C(CSC1=Nc2ccccc2N=C(c2ccc(F)cc2)C1)Nc1cccc(C(F)(F)F)c1 |  | inactive: 0.766%
COc1ccccc1OCC(O)COC(N)=O (stereo not given) |  | inactive: -12.4%
CCC(=O)N1CCc2cc(Br)cc(S(=O)(=O)CCC(=O)N3CCN(c4ccc(F)cc4)CC3)c21 |  | inactive: 0.878%
Cc1ccccc1OCC(=O)OCc1cc(=O)n2nc(C3CC3)sc2n1 |  | inactive: -4.93%
COc1ccccc1NC(=O)CCn1nc(-c2ccccc2OC)c2c(C)cc(C)nc21 |  | inactive: -9.32%
Cc1ccccc1NC(=O)Nc1nnc(N2CCCCCC2)s1 |  | inactive: -4.97%
Cc1cc(C)c(C)c(OCC(=O)Nc2ccc(S(=O)(=O)Nc3nc(C)cc(C)n3)cc2)c1 |  | inactive: 1.59%
COc1ccc(CC(=O)NCCc2sc3nc(-c4ccc(OC)cc4)nn3c2C)cc1 |  | inactive: -12.7%
O=C(C1CCC1)N1CCCc2cc(S(=O)(=O)N3CCN(c4ccccc4)CC3)ccc21 |  | inactive: -0.0792%
COc1cccc(N2CCN(C(=O)C3Cc4ccccc4N3C(C)=O)CC2)c1 (stereo not given) |  | inactive: 1.64%
CCc1ccc(OCc2cc(=O)n3c4c(sc3n2)CCCC4)cc1 |  | inactive: 10.2%
CCCN(CCC)CCCNC(=O)c1cn(CC)c2ccc(S(=O)(=O)N(C)C3CCCCC3)cc2c1=O | inactive | 
Cc1ccc(S(=O)(=O)c2nnn3c2nc(NC(C)C)c2sccc23)cc1 |  | inactive: -0.519%
CCC(=O)Nc1ccccc1-c1nc2ccccc2n(CC(=O)c2ccc(Cl)cc2)c1=O |  | inactive: -0.097%
CCOC(=O)N1CCc2c(sc(NCc3cccc(F)c3)c2C(=O)Nc2ccc(OC)cc2OC)C1 |  | inactive: -1.24%
CCOC(=O)c1c(C)[nH]c(CCC(=O)Nc2c(C)cccc2CC)c1C | inactive | 
CCNc1ncnc2c1nnn2C |  | inactive: -2.15%
CC(C)OC(=O)C(C(=O)C(F)(F)F)c1cc(NS(=O)(=O)c2ccc3c4c(cccc24)C(=O)N3)ccc1O (stereo not given) |  | inactive: 6.7%
Cc1cccc(-c2nc3ccccc3n2Cc2ccccc2)c1 |  | inactive: 9.9%
Nc1ccn([C@@H]2CS[C@H](CO)O2)c(=O)n1 |  | inactive: 13.4% [at 92.2 µM]
COc1ccccc1NC(=O)C1=C(C)Nc2nc(CCCO)nn2C1c1cccc(O)c1 (stereo not given) |  | inactive: -2.21%
COc1ccc2c(Sc3ccc(C)cc3)c(C(=O)NCc3ccc(F)cc3)[nH]c2c1 |  | inactive: -3.08%
CCCC(=O)Nc1cc(C(=O)NCc2ccccc2)ccc1S(=O)(=O)c1ccc(Cl)cc1 |  | inactive: -12.5%

Structure (SMILES) | outcome | activity change, negative = inhibition
CC(C)c1ccc(NC(=O)CC2NCCNC2=O)cc1 (stereo not given) |  | inactive: 53.4%
O=C(CSc1nc2c(oc3ccccc32)c(=O)n1-c1ccccc1)Nc1ccccc1F | inactive | 
O=C(Nc1cccc(NC(=O)c2ccccc2F)c1)c1ccccc1 |  | inactive: -3.87%
O=C(Cn1cc(S(=O)(=O)N2CCCC2)c(S(=O)(=O)N2CCCC2)c1)Nc1ccccc1 |  | inactive: 4.33%
COc1cc(C2CC(=O)c3cnc(N4CCN(CCO)CC4)nc3C2)cc(OC)c1OC (stereo not given) |  | inactive: -26.6%
Cn1c(=O)c(=O)n(C)c2cc(S(=O)(=O)N3CCN(c4ccc(F)cc4)CC3)ccc21 |  | inactive: 5.14%
O=C(CCCn1c(=O)c2ccccc2n(Cc2cccc(Cl)c2)c1=O)NCCc1ccc(Cl)cc1 | inactive | 
Cc1ccc(S(=O)(=O)N2CCCc3cc(NS(=O)(=O)c4cc(F)ccc4F)ccc32)cc1 |  | inactive: -7.9%
COC(=O)c1c(NC(=O)COc2ccc(OC)cc2)sc2c1CCC(C)C2 (stereo not given) |  | inactive: -19.4%
COc1cc(NC(=O)CSc2ccc(-c3sc(-c4ccccc4)nc3C)nn2)cc(OC)c1 |  | inactive: -0.167%
CCCc1cc(=O)[nH]c2nnc(SCCC(C)C)n12 |  | inactive: -17.3%
CCC(=O)N1c2ccccc2CC1C(=O)NCCc1ccc(OC)cc1OC (stereo not given) |  | inactive: 3.29%
CCCN1C(=O)C2(c3ccccc31)c1c(oc3cc(C)c(C)cc3c1=O)C(=O)N2CCCOC (stereo not given) | inactive | 
COc1ccc(CN2CCN(S(=O)(=O)c3ccccc3)CC2)c(OC)c1 |  | inactive: 19.1%
Cc1ccc(CSc2nnc3[nH]c(=O)cc(C)n23)cc1 |  | inactive: 0.117%
CCn1cc(S(=O)(=O)c2ccc(C)cc2C)c(=O)c2cc(F)c(N3CCCC3)cc21 |  | inactive: -0.825%
CCCn1cc(S(=O)(=O)c2ccc(OC)cc2)c(=O)c2cc(F)c(N3CCCCCC3)cc21 |  | inactive: -3.7%
CC(C)Oc1ccc(CNC(=O)C2CCCN(S(=O)(=O)c3ccc4c(ccn4C)c3)C2)cc1 (stereo not given) | inactive | 
CC(=O)Nc1nonc1-c1nnc(SCc2ccc(C)cc2)n1C |  | inactive: -11.7%
CCOC(=O)CNc1ncnc2c1nnn2C |  | inactive: -10.3%
COc1cccc(CNC(=O)CCc2c(C)nn(-c3ccc(N4CCOCC4)nn3)c2C)c1 |  | inactive: 5.74%
CCNC(=O)c1ccc(-n2c(-c3ccccc3)cc3c2CCCCC3)cc1 |  | inactive: -26.2%
O=C(CC1C(=O)N(c2ccccc2)C(=O)N1CCc1cccs1)Nc1ccc(Cl)cc1 (stereo not given) |  | inactive: -2.82%
Cc1c(C(=O)Nc2cccc(C(F)(F)F)c2)oc2ccc(S(=O)(=O)N(C)C3CCCCC3)cc12 | inactive | 

Structure (SMILES) | outcome | activity change, negative = inhibition
COc1ccc(OC)c(NC(=O)[C@H](Cc2ccccc2)N2Cc3ccccc3C2=O)c1 |  | inactive: 59.4%
COc1cccc(-c2cc(C(=O)Nc3ccc(F)cc3)[nH]n2)c1 |  | inactive: -2.39%
CCCc1cc(=O)[nH]c2nnc(SCC(=O)Nc3cccc(C)c3)n12 |  | inactive: 1.12%
Cc1cccn2c(=O)c(/C=C(\C#N)c3nc4ccccc4n3C)c(Oc3ccc(Cl)cc3)nc12 | inactive | 
CCCNC(=O)c1c2c(nc3ccccc13)C(=O)N(C1CCCCC1)C2 | inactive | 
CCOc1cc(-c2nnc(SCC(=O)NCc3ccc(C)cc3)nc2-c2ccc(OC)c(OCC)c2)ccc1OC | inactive | 
CC1C(=O)N2CCCc3cc(S(=O)(=O)Nc4ccc(Br)cc4F)cc1c32 (stereo not given) |  | inactive: -0.736%
O=C(Cn1c(=O)oc2cc(S(=O)(=O)NCc3ccccc3)ccc21)N(CCO)Cc1ccccc1 |  | inactive: -1.2%
COc1cccc(NC(=O)C2CCCN2S(=O)(=O)c2ccc3c(c2)n(C)c(=O)c(=O)n3C)c1 (stereo not given) |  | inactive: -3.29%
COc1ccc(OC)c(NC(=O)c2nc(SCc3ccccc3F)ncc2Cl)c1 |  | inactive: -2.25%
Cc1ccc2oc(C(=O)Nc3sc4c(c3C(=O)NCc3ccccc3)CCCC4)cc(=O)c2c1 |  | inactive: 1.04%
CCOc1ccc(NC(=O)c2ccc3nc(Cc4ccccc4)oc3c2)cc1 |  | inactive: -18.1%
CCC1CN(C(=O)Nc2cc(OC)cc(OC)c2)c2ccccc2S1 (stereo not given) |  | inactive: -4.04%
CCc1cccc(-n2c(=O)c3cccnc3n2CC(=O)Nc2ccccc2C(=O)OC)c1 |  | inactive: -7.3%
CCC(=O)N1CCc2cc(S(=O)(=O)NC(Cc3ccccc3)C(=O)NCc3ccc(F)cc3)ccc21 (stereo not given) |  | inactive: -0.447%
N#CC1=C2SCN(C3CCCCC3)CN2C(=O)CC1c1ccc(F)cc1 (stereo not given) |  | inactive: -25.8%
COc1ccc(-n2nc3cc(C)c(NC(=O)c4ccc(C)cc4C)cc3n2)cc1Cl | inactive | 
Cc1ccc(OCC(=O)OCc2cc(=O)n3c(C)csc3n2)cc1 |  | inactive: -0.337%
CCOc1ccc(NC(=O)C2CCCN(S(=O)(=O)c3ccc(Br)s3)C2)cc1 (stereo not given) |  | inactive: -12.4%
COc1ccc(C(=O)Nc2cccc(-c3nc4cccnc4s3)c2C)c(OC)c1 |  | inactive: -8.87%
CCOC(=O)c1ccccc1NC(=O)Cn1c(=O)n(Cc2ccc(C(=O)NCc3ccc4c(c3)OCO4)cc2)c(=O)c2ccccc21 | inactive | 
O=C(CSc1nc2c([nH]c3ccccc32)c(=O)n1-c1ccccc1)Nc1ccccc1F |  | inactive: 2.34%
O=C(CCn1cnnn1)Nc1ccccc1 |  | inactive: 1.8%
Cc1ccc(-c2c(C)n3c4c(=O)n(C)c(=O)n(C)c4nc3n2CCCO)cc1 |  | inactive: 9.75%

Structure (SMILES) | outcome | activity change, negative = inhibition
CC(=O)N1CCCc2cc(S(=O)(=O)N3CCC(N(C)C(C)C)CC3)ccc21 |  | inactive: 0.395%
COCCCNC(=O)C1CCN(c2ncnc3c2nc2n3CCCCC2)CC1 |  | inactive: 3.06%
O=C(Nc1cccc(C(F)(F)F)c1)c1ccc(F)c(S(=O)(=O)N2CCc3ccccc3C2)c1 |  | inactive: 1.38%
CCOc1cc(Br)c(C2C(C(=O)OC)=C(C)NC3=C2C(=O)c2ccccc23)cc1OCC (stereo not given) |  | inactive: 5.87%
COc1ccc(-c2nc(C)c(CCNC(=O)c3ccccc3Br)s2)cc1OC | inactive | 
Cc1c2cnn(CC(=O)NCc3ccc(F)cc3)c(=O)c2c(C)n1Cc1ccccc1Cl | inactive | 
Cc1cccc(C(=O)NC(=O)Nc2ccc(-n3nc(C(F)(F)F)cc3C(F)(F)F)cc2)c1 |  | inactive: 2.85%
CC(=O)N1c2c(cc(Br)cc2S(=O)(=O)Nc2ccccc2C)CC1C (stereo not given) | inactive | 
CCC(C)NC(=O)C1CCN(S(=O)(=O)c2ccc3c(ccn3CC)c2)CC1 (stereo not given) |  | inactive: 3.55%
COc1ccc2c(c1)c1c(c(=O)n(-c3ccc(C)cc3)c(=O)n1CC(=O)Nc1cc(C)ccc1C)n2C | inactive | 
Cc1nc2c(C(=O)NCCC(C)C)cnn2c(C)c1Cc1c(F)cccc1Cl |  | inactive: 3.01%
COc1cc2c(cc1OC)C(c1cc(OC)c(O)c(OC)c1)CC(=O)N2 (stereo not given) | inactive | 
CC1CCCN(Cc2c(O)ccc3c(=O)c(-c4ccc(Cl)cc4)c(C(F)(F)F)oc23)C1 (stereo not given) |  | inactive: 0.637%
CCOC(=O)C1CCCN(C(=O)C2CCN(S(=O)(=O)c3c(C)noc3/C=C/c3ccc(C)cc3)CC2)C1 (stereo not given) |  | inactive: -13%
O=C(O)c1ccccc1NC(=O)N1c2ccccc2Sc2ccccc21 |  | inactive: 2.19%
COc1cccc2sc(N(Cc3cccnc3)C(=O)c3ccc(S(=O)(=O)N(C)C)cc3)nc12 |  | inactive: 11.5%
CCOC(=O)C1CCN(c2ncnc3c2c(-c2ccccc2)cn3-c2ccc(C)c(Cl)c2)CC1 |  | inactive: -5.7%
CCc1cc(=O)[nH]c(SCc2nc(-c3ccccc3C)no2)n1 |  | inactive: 2.53%
COc1nnc(-c2ccc(N3CCCCC3)c(NC(=O)c3ccc(Cl)cc3)c2)c2ccccc12 |  | inactive: 5.97%
COc1ccc(-c2cc(C(F)(F)F)nc(SCC(=O)Nc3ccc(C(C)=O)cc3)n2)cc1 |  | inactive: 1.99%
Cc1cc(OCC(=O)Nc2ncn[nH]2)c(C)c(C)c1Br |  | inactive: 52.3%
Cc1cc(C)cc(N2C(=O)CS(=O)(=O)C23C(=O)N(Cc2ccccc2)c2ccccc23)c1 (stereo not given) | inactive | 
O=C(/C=C/c1cn(CC(O)CN2CCc3ccccc32)c2ccccc12)c1ccc(Br)cc1 (stereo not given) |  | inactive: -9.56%

— PubChem BioAssay AID1963576 (National Center for Advancing Translational Sciences (NCATS), 2024)
